Reference: patent US20250084172A1 (23ANDME, published 2025)

Key:
[1] = biological target: T1, human soluble ULBP1 (hULBP1) (human, UniProt Q9BZM6 26-215); assay: SPR (BIACORE 8K, 37 C); hNKG2D-Fc captured on Protein A, soluble ligand injected
T1 construct: also called sULBP1
T1 sequence: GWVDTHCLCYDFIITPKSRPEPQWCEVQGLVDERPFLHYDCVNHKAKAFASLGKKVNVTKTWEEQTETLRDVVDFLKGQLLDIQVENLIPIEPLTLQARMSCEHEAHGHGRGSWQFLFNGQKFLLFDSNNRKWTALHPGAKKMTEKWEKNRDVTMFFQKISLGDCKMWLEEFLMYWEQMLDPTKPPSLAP

[2] = biological target: T2, human soluble ULBP5 (hULBP5) (human, UniProt Q6H3X3 26-218); assay: as above
T2 construct: also called sULBP5
T2 sequence: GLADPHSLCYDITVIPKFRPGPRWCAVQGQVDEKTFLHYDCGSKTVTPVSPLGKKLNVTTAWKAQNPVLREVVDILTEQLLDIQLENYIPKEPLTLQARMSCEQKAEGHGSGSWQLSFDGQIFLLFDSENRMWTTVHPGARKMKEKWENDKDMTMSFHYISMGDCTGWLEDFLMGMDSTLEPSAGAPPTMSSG

[3] = biological target: T3, human soluble MICA (hMICA) (human, UniProt Q29983 24-308, limits assumed); assay: as above
T3 construct: also called sMICA

[4] = biological target: T4, human soluble ULBP3 (hULBP3) (human, UniProt Q9BZM4 30-216); assay: as above
T4 construct: also called sULBP3
T4 sequence: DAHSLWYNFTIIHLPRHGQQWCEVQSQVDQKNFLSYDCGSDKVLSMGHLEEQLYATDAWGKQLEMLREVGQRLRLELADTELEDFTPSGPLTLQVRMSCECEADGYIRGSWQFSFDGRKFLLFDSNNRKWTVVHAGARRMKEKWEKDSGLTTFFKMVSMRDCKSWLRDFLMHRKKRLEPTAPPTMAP

[5] = biological target: T5, human soluble ULBP2 (hULBP2) (human, UniProt Q9BZM5 26-216); assay: as above
T5 construct: also called sULBP2
T5 sequence: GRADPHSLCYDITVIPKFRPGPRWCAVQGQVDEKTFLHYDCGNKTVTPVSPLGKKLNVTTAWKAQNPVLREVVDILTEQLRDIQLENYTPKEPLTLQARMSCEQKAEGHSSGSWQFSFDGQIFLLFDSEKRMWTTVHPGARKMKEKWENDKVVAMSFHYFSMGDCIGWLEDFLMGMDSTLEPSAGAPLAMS

[6] = biological target: T6, human soluble ULBP4 (hULBP4) (human, UniProt Q8TD07 31-225); assay: SPR (BIACORE 8K, 37 C); hNKG2D-Fc captured on Protein A chip, soluble ligand injected
T6 construct: also called sULBP4
T6 sequence: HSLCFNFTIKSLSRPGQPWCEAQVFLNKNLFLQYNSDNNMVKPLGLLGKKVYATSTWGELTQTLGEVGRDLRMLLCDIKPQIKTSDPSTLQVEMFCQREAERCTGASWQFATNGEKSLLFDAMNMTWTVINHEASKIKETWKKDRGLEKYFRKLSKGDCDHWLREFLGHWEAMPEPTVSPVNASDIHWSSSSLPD

Kd [1]: 125 nM
Kd [2]: 207 nM
Kd [3]: 79 nM
Kd [4]: 594 nM
Kd [5]: 220 nM
B1: hNKG2D-Fc (human NKG2D 78-216 with C-terminal long huFc-Flag tag) (Fc fusion)
chain: FLNSLFNQEVQIPLTESYCGPCPKNWICYKNNCYQFFDESKNWYESQASCMSQNASLLKVYSKEDQDLLKLVKSYHWMGLVHIPTNGSWQWEDGSILSPNLLTIIEMQKGDCALYASSFKGYIENCSTPNTYICMQRTVGGGGSENLYFQGGGGS[… human IgG1 Fc …]DYKDDDDK
binding result [6]: no binding (tested: 2 µM (highest concentration injected))
